# Laboratory results taken from the supplement of paper PMC4466236.
# Whole data set: some 33,000 sequences, median “E-score (dimensionless, -0.5 to 0.5)” near -0.058, cut for the highest 2% near 0.35. This is one part of the list.
# System: MvaT
# Test: PBM 8-mer E-score (mean of HK and ME arrays) (E-score (dimensionless, -0.5 to 0.5)); higher = stronger relative binding preference; most listed sequences are background and not binding sites
# Summary of the method: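 Full-length P. aeruginosa MvaT, with glutathione S-transferase fused to its N-terminus (cloned into pTH6838 by isothermal assembly), was tested by protein binding microarray using a previously described protocol. Two universal double-stranded 60-mer arrays (ME and HK) were used, each with a constant 25-mer primer region and a variable 35-mer region covering all 8-mers. The rank-based 8-mer E-score (-0.5 to 0.5) is the mean of the two arrays, parsed with a custom Python script.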
row,Sequence,PBM 8-mer E-score
1,ACGATGAT,0.0286
2,CGATCCAG,-0.184
3,GTTCGGCA,-0.007
4,CTTCTAAA,0.14
5,TAGACTGA,-0.0853
6,AGCGCGTG,-0.0178
7,GCGGAGAC,-0.176
8,GCCTAAAC,0.00351
9,ATGGCCGA,-0.243
10,GGCGGCAA,-0.13
11,TCGGGTAA,-0.0772
12,CGGCCTGC,-0.296
13,AGTAGTGC,-0.00221
14,GCGAAGAA,0.0778
15,GTGTCCTA,-0.0256
16,CGGAAGCC,-0.245
17,AGTGGCGA,0.0365
18,GCAACATA,0.203
19,GTGTCTGA,-0.0547
20,TGACACCA,-0.113
21,ATTCCACG,0.0399
22,AACTTGGA,0.104
23,AAGCCGAC,-0.171
24,AGGCCCAC,-0.331
25,CGTTCAGC,-0.132

row,Sequence,PBM 8-mer E-score
1,GAATACGC,0.106
2,ACCGTCAA,-0.181
3,CCACCTCC,-0.334
4,ACTTCCGA,0.15
5,AGGGCGAC,-0.211
6,AACCGCGA,-0.0855
7,CGTCATAG,-0.102
8,GAACATAA,0.256
9,TCACCGCA,-0.105
10,CCAGCTGG,-0.285
11,GGGATGAC,-0.201
12,AGTCAGTG,0.0469
13,AGGAAACC,-0.216
14,ACACGGGG,-0.104
15,GACGGAAA,0.0719
16,CTTGCCCA,-0.191
17,CCGTAAAA,0.0693
18,GGGTAAAA,0.0716
19,AAATTTCG,0.265
20,AGCAGCCT,-0.257
21,CTCTTACC,-0.0132
22,TCGTCTCA,-0.132
23,GCATTCGA,-0.0992
24,CCCCCGCG,-0.135
25,CAGCAAAA,0.0343

row,Sequence,PBM 8-mer E-score
1,CTCCTCTA,-0.13
2,CACCAACG,-0.152
3,AAAGCTAC,-0.172
4,CAGTAAAG,0.0486
5,GGACGACA,-0.16
6,CGCAGAAA,0.0151
7,GGTAGTGA,-0.163
8,AACGTTTC,-0.0596
9,AACTTAAA,0.352
10,ATACTACA,0.303
11,CACCAGCG,-0.298
12,ATTGGCCC,-0.0825
13,CCGCGGAC,-0.199
14,AACACTGT,0.102
15,AATGAGAG,-0.0199
16,CAGAAACG,-0.154
17,GCGTCACC,-0.198
18,CTGAAATA,0.201
19,AACCTTCC,-0.109
20,ATCGAAAA,0.0682
21,CGGGCGCA,-0.18
22,GATGAAAC,-0.0763
23,AAAGTTTA,0.353
24,TAATTACA,0.384
25,AAACATGC,0.175

row,Sequence,PBM 8-mer E-score
1,AGTAACGC,0.0313
2,ATTAGCTG,0.199
3,AAGGCCTG,-0.127
4,AGCGGGGC,-0.329
5,AGCGAATG,0.052
6,ACCATACG,-0.0493
7,GGTTTACA,0.114
8,ATCCAAAA,0.1
9,GCTTCAGA,-0.254
10,CCATAAGA,-0.0202
11,CTCATGAG,-0.317
12,GAACTAGC,0.0495
13,CATTAAAG,0.272
14,CGCCGGCG,-0.347
15,CGCTAGAC,-0.224
16,CTTAAAAC,0.175
17,AATCGGGT,0.0817
18,ACAACACC,0.202
19,GAAGTACC,0.00631
20,GTCTCGCA,-0.0935
21,GGCCCCCC,-0.31
22,GAAATAGA,0.158
23,CAGTCGTA,-0.199
24,GTTCGCAA,0.00892
25,AATATCAG,0.273

row,Sequence,PBM 8-mer E-score
1,ACTATAGT,0.328
2,CTGCGGGC,-0.319
3,CTGCGGCC,-0.174
4,ACATAGGC,0.0268
5,CCGATGTA,-0.0165
6,CTTCTACC,-0.0655
7,ATAGCCAC,-0.107
8,TATAGAAA,0.205
9,AAAGTACC,0.164
10,AGACCGTC,-0.239
11,CCTCCGCG,-0.122
12,AGTTGCCA,0.0887
13,ACCATCCC,-0.125
14,CTTCCCTA,0.0204
15,ACTCCAAA,0.00956
16,CTGGTAAC,-0.0531
17,CCTGTCGA,-0.164
18,CACAGGGG,-0.21
19,CACTGTGC,-0.177
20,AATGACGG,0.0872
21,AAAATGAG,0.124
22,TGCGAACA,-0.00172
23,GGGGAAGA,-0.18
24,ATCGCTAG,-0.0949
25,AGCCGCTC,-0.265

row,Sequence,PBM 8-mer E-score
1,ATATGCGG,0.0857
2,CTCCTCGC,-0.267
3,AGATCCCT,-0.128
4,AACTCTAG,-0.00057
5,AGGTCGGC,-0.289
6,CAAGTACC,-0.0373
7,ACGGAGTG,-0.14
8,AGCGCCAT,-0.212
9,ACCCGTGA,-0.204
10,CACCTTCA,0.000508
11,AGCCGCTG,-0.12
12,AAGGAGGT,-0.297
13,GGGACCCC,-0.391
14,CTGCTAAC,0.04
15,ACCACACC,-0.00167
16,GTGGCCGA,-0.152
17,AAACTGAG,0.0492
18,AACGATCA,-0.0826
19,CAGTTAGC,0.0275
20,CACTCAGA,-0.0498
21,GTGGATTA,0.119
22,AGCAGGAC,-0.132
23,CCCCTGAC,-0.278
24,AGTATTTC,0.207
25,GATTCTCC,0.0171

row,Sequence,PBM 8-mer E-score
1,TATGTGGA,0.241
2,ATGACCGG,-0.132
3,ACTCGAGC,-0.114
4,TAGGAGAA,0.124
5,AAATCGGT,0.0576
6,AAACTCGT,0.16
7,CCCTTCAA,-0.141
8,ACAGGGGC,-0.246
9,AAGACAGT,0.11
10,AGTAGAAG,-0.0262
11,CAGTGGTA,-0.0852
12,CCCCGAAC,-0.19
13,AGCTAGGA,-0.0988
14,AACAGACT,0.0447
15,GCACCCAC,-0.0267
16,AATCTGGG,-0.122
17,ATAAGCGG,0.0871
18,AAGGGGAA,0.0209
19,CCCGTACC,-0.216
20,ACTAGGAT,0.046
21,GCATACGC,-0.0631
22,AGTCAAAT,0.0851
